SMILES strings stand for the structures. Among all 52,000 compounds or so, about 4,300 (8.3%) were called active. Cut-off read from the data, not from the text of the source: active = survival mostly below about 52% (no sharp cut-off); inactive = mostly above about 56%. This is one part of the list.

In the experiment the test system is DeltatarO mutant. Kind of experiment: S. aureus survival, RN4220 and DeltatarO strains – OD600, teichoic acid synthesis inhibitors, primary screen (AID 463173). To be noted: S. aureus RN4220 wild type/DeltatarO growth, OD600, 18 h, hits give low values, screened at 18.75 µg/mL (by protocol).
Turning to `Cc1ccc(CNC(=O)CCCn2c(=O)[nH]c3ccc(Br)cc3c2=O)cc1`, the survival is inactive: 87%.
As for `COc1ccc2nc(C)cc(Nc3ccc(Cl)c(Cl)c3)c2c1`, the survival is inactive: 62%.
In the case of `COc1ccc(NC(=S)N(Cc2ccco2)Cc2cc3cc(C)c(C)cc3[nH]c2=O)cc1` it was active: 38%; in that of `COc1cccc(-c2noc(COc3ccccc3Cl)n2)c1`, inactive: 81%.
In the case of `CC(C)Oc1ccc(CCN=C(N)N=C(N)N)cc1Cl` it was inactive: 100%.
In the case of `Cc1ccc(Cl)cc1NC(=O)CSc1nc2ccccc2nc1Cc1ccccc1` it was inactive: 80%; in that of `COc1ccc(Cn2ccnc2SCC(=O)NCc2ccco2)cc1`, inactive: 75%; in that of `COc1ccc(-c2onc(C)c2C)cc1S(=O)(=O)NCC1CCN(Cc2cc(C)ccc2C)CC1`, inactive: 100%.
In the case of `CCn1c(=O)c2cc(C(=O)NCCCN3CCC(C)CC3)sc2c2ccccc21`, the survival is inactive: 101%.
`COC(=O)c1ccccc1NC(=O)c1ccc2nc(CCc3ccccc3)oc2c1`: the survival was inactive: 131%.
As to `CCc1ccccc1NC(=O)N1CCN(C(=O)c2nsc3ccccc23)CC1`, the survival is active: 17%.
For `CCc1ccc(NC(=O)CC2C(=O)N(c3cccc(C)c3)C(=O)N2Cc2ccco2)cc1` (stereo not given), the survival was inactive: 118%.
In the case of `CC1CCN(S(=O)(=O)c2ccc3c(ccn3CCC(=O)NCc3ccc(N(C)C)cc3)c2)CC1` it was inactive: 94%.
Regarding `O=C(Nc1ccc(F)c(Cl)c1)C1CCCN(c2cnccn2)C1` (stereo not given), the survival was inactive: 87%.
In the case of `COc1ccc(CC2C(=O)Nc3ccc(Br)cc32)cc1OC` (stereo not given) it was inactive: 82%; in that of `COc1ccc(NC(=O)CCc2c(C)nc3nc(CNC(=O)OC(C)(C)C)nn3c2C)cc1OC`, inactive: 83%.
Then `COc1ccc(S(=O)(=O)NCC(c2ccco2)N2CCN(c3ccc(F)cc3)CC2)cc1C` (stereo not given), with inactive: 83%.
In the case of `CCOc1ccccc1C(=O)N(Cc1ccccc1F)C1CCS(=O)(=O)C1` (stereo not given) it was inactive: 75%.
On to `COC(=O)c1cn(C(=O)OC)c2ccccc12`, for which the survival is inactive: 92%.
Take `Cc1ccc(-c2nnc3ccccc3c2C(=O)Nc2ccccc2F)cc1`: the survival is inactive: 68%.
Then `Cc1ccc(NC(=O)Cn2c(=O)n(CCC(=O)NCc3ccccc3Cl)c(=O)c3ccccc32)cc1`, with inactive: 107%; and `COc1cc(NC(=O)C(CCSC)NS(=O)(=O)c2ccc3c(c2)oc(=O)n3C)cc(OC)c1` (stereo not given), with inactive: 55%.
Then `S=C1N(CN2CCOCC2)CCN1CN1CCOCC1`, with inactive: 82%.
In the case of `O=C(NCc1ccccn1)C1C2C=CC(C2)C1C(=O)Nc1ccc(F)cc1` (stereo not given) it was inactive: 110%; in that of `O=C(CCC1CCCC1)N1CCCC(c2nc(-c3ccc(F)cc3)no2)C1` (stereo not given), inactive: 83%; in that of `COc1ccc(Cl)cc1NC(=O)CSc1cn(CC(=O)N2CCCCCC2)c2ccccc12`, inactive: 80%.
For `CCNc1nc(NC(C)(C)C)nc(Oc2ccc(=O)n(C)n2)n1`, the survival was inactive: 68%.
For the compound `O=C(NCCc1ccccc1)C(=O)NCC(c1ccc2c(c1)OCO2)N1CCOCC1` (stereo not given), the survival was inactive: 89%.
In the case of `CCS(=O)(=O)N1CCc2cc(C(=O)NCCc3ccc(OC)cc3)ccc21` it was inactive: 105%; in that of `CC1CCN(S(=O)(=O)c2nnc(NC(=O)c3cccc(Br)c3)s2)CC1`, active: 31%.
For the compound `COc1cc(NC(=O)CC(C)n2nc(C)cc2C)cc(OC)c1` (stereo not given), the survival was inactive: 93%.
Then `COc1ccc(-c2onc(C)c2C)cc1S(=O)(=O)NCC1CCN(Cc2cccc(F)c2)CC1`, with inactive: 95%; and `CC1=C(c2ccc(Cl)cc2)S(=O)(=O)N=C1N1CCC(C(=O)NCc2ccccc2F)CC1`, with inactive: 70%; and `COc1ccc(CCNc2nc3c(-c4cccc(C)c4)nnn3c3ccccc23)cc1OC`, with inactive: 122%.
In the case of `Cc1ccc(-n2c(=O)c3c(c4cc(C)ccc4n3C)n(CC(=O)NCc3ccccc3)c2=O)cc1` it was inactive: 74%; in that of `CC(=O)Nc1ccc(NC(=O)C(C)C)nc1`, inactive: 74%; in that of `COc1ccccc1NC(=O)CSc1nc(-c2ccccc2F)nc2cc(=O)[nH]n12`, inactive: 71%.
In the case of `COc1ccc(NC(=O)c2c(NCc3cccc(OC)c3)sc3c2CCCC3)cc1` it was inactive: 86%; in that of `O=C(CCC1N=C2c3ccccc3N=C(SCc3ccccc3F)N2C1=O)NCc1ccc(F)cc1` (stereo not given), inactive: 69%.
Take `O=C(CNS(=O)(=O)c1ccc(Cl)cc1)NC1CCCC1`: the survival is active: 67%.
In the case of `Cc1ccc2occ(CC(=O)N(Cc3ccc(C(C)C)cc3)C3CCS(=O)(=O)C3)c2c1` (stereo not given) it was inactive: 66%; in that of `O=C(Nc1ccc(Cl)c(C(F)(F)F)c1)C1CCN(S(=O)(=O)c2cccc3nonc23)CC1`, inactive: 89%.
Then `Cc1cccn2c(=O)c(C(=O)NCCc3ccc(S(N)(=O)=O)cc3)c(O)nc12`, with inactive: 51%; and `Cc1ccccc1CSc1cn(CC(=O)N2CCCCCC2)c2ccccc12`, with inactive: 68%; and `O=C(CCOc1ccccc1)N(Cc1cccnc1)c1nc2c(F)cccc2s1`, with inactive: 71%.
As for `CCCCn1c(NCc2ccc(N(C)C)cc2)nc2ccccc21`, the survival is inactive: 52%.
In the case of `O=C(O)Cn1ccc2cc(S(=O)(=O)N3CCCCCC3)ccc21` it was inactive: 85%; in that of `COc1ccc(CNC(=O)COCc2cc(-c3cccs3)on2)cc1`, inactive: 107%.
For `COc1ccc(S(=O)(=O)N(CC(=O)Nc2cccnc2)c2ccc(Cl)cc2)cc1`, the survival is active: 30%.
In the case of `COc1ccc(CNC(=O)Cn2c(=O)cc(-c3ccccc3)c3c(C)nn(C)c32)cc1` it was inactive: 67%; in that of `COc1ccc(NC(=O)Cn2c(=O)ccc3cc(S(=O)(=O)N4CCCC4)ccc32)cc1Cl`, inactive: 106%.
Regarding `Cc1cccc(N2CCN(C(=O)Cn3nc(Cc4cccnc4)c4ccccc4c3=O)CC2)c1C`, the survival is inactive: 81%.
Then `FC(F)(F)c1cccc(N2CCN(CCN3CCOCC3)CC2)c1`, with inactive: 85%; and `Clc1cccc(-n2ncc3c(NCCCn4ccnc4)ncnc32)c1`, with inactive: 84%; and `CCc1ccc2oc(C(=O)Nc3ccccc3C(=O)OC)cc(=O)c2c1`, with inactive: 57%.
In the case of `O=C(O)C1CCCN1S(=O)(=O)c1ccc2ccccc2c1` (stereo not given) it was inactive: 112%.
Consider `CC(C)(C)c1ccc(-c2nc(SCC(=O)Nc3ccccc3F)n3[nH]c(=O)cc3n2)cc1`, for which the survival was inactive: 95%.
In the case of `CCCn1c(CCC(=O)Nc2ccc(OCC)cc2)nc2cccnc21` it was inactive: 93%; in that of `COc1ccc2nc(SCC(=O)Nc3ccc(N4CCCC4)cc3)c(C#N)cc2c1`, inactive: 89%; in that of `CC1CCc2c(sc(NC(=O)C3c4ccccc4Oc4ccccc43)c2C#N)C1` (stereo not given), inactive: 51%.
Consider `Cc1ccc(-n2c(=O)c3c(C)c(C)sc3n(CC(=O)NCc3ccccc3)c2=O)cc1C`, for which the survival was inactive: 80%.
In the case of `CCOC(=O)c1c(C)oc2nc(C)nc(NCc3ccc(F)cc3)c12` it was inactive: 88%; in that of `COc1ccc(C2=CC(c3ccccc3Cl)n3nc(-c4ccc(Cl)cc4)nc3N2)cc1` (stereo not given), inactive: 53%; in that of `COC(=O)c1scc(-c2ccc(C)cc2)c1S(=O)(=O)N1CCN(c2ccc(C(C)=O)cc2)CC1`, inactive: 77%.
In the case of `Cc1ccc(Cl)cc1N1CCN(C(=O)Cn2cnc3sc(C)c(S(=O)(=O)N4CCC(C)CC4)c3c2=O)CC1` it was active: 47%.
Then `COc1ccccc1CNC(=O)CCS(=O)(=O)c1ccc2c(c1)CCN2C(C)=O`, with inactive: 91%.
As to `Cc1nc2nc(NCc3ccc(Cl)cc3)[nH]n2c(=O)c1Cc1ccccc1`, the survival is active: 40%.
In the case of `Cc1ccc(-n2ncc3c(NCCC4=CCCCC4)ncnc32)cc1` it was active: 20%; in that of `COC(=O)NCC(c1cccnc1)N1CCN(c2ccc(F)cc2)CC1` (stereo not given), inactive: 83%; in that of `Cc1ccc(Cl)cc1NC(=O)C(C)n1nc(-c2ccccc2)ccc1=O` (stereo not given), active: 20%.
Consider `CCc1ccccc1NC(=O)CCNS(=O)(=O)c1ccc2c(c1)CCN2C(=O)C1CC1`, for which the survival is inactive: 92%.
Then `CC(C)OC(=O)CC12CN(C)CC(CC(=O)OC(C)C)(CN(C)C1)C2=O`, with inactive: 79%; and `COc1ccc(C(=O)Nc2nnc(SCc3cc(=O)c4cc(C)cc(C)c4[nH]3)s2)cc1`, with inactive: 94%; and `Cc1ccc(CNC(=O)CCCn2c(=O)c3ccccc3n(CC(=O)Nc3ccc(C)c(C)c3)c2=O)cc1`, with inactive: 78%.
Then `C=CCNC(=O)C1CC(=O)N(c2ccc(OCC(=O)Nc3ccc(F)c(Cl)c3)cc2)C1` (stereo not given), with inactive: 89%.
In the case of `CCOc1ccc(CCNC(=O)CCCn2c(=O)c3cccn3c3ccccc32)cc1` it was inactive: 72%.
On to `Cc1ccc2c(CC(=O)Nc3ccc(S(=O)(=O)N4CCCCC4)cc3)coc2c1`, for which the survival is inactive: 60%.
Consider `Cc1ccc(Cl)cc1NC(=O)Cn1c(=O)oc2cc(S(=O)(=O)N3CCCC3)ccc21`, for which the survival was inactive: 81%.
`C=CCn1c(C)c(C=C(C#N)C#N)c2ccccc21`: the survival was inactive: 99%.
In the case of `Cc1cc(C)c2c(=O)nc(SCc3ccccc3C)n(C3CC3)c2n1` it was inactive: 90%; in that of `Cc1ccc(-n2ncc3c(Nc4cccc(C)c4C)ncnc32)cc1`, inactive: 94%.
Then `CCOc1ccccc1N(C)C(=O)C1CCCN(c2ncnc3c2nc2n3CCCCC2)C1` (stereo not given), with inactive: 83%.
On to `CCC1=[N+](CC(=O)c2ccccc2)CCn2cccc21`, for which the survival is inactive: 110%.
In the case of `COc1ccc(C(=O)OC2=C(C(=O)c3ccccc3)N(C)S(=O)(=O)c3ccccc32)cc1OC` it was inactive: 131%; in that of `COc1ccccc1N1CCN(S(=O)(=O)c2c(C)sc3ncn(CC(=O)N(C)c4ccc(Cl)cc4)c(=O)c23)CC1`, inactive: 65%.
As for `CCNC(=O)c1c(NC(=O)Cc2coc3cc(C)cc(C)c23)sc2c1CCCC2`, the survival was inactive: 69%.
Then `O=C1CCCN1c1ccc(S(=O)(=O)N2CCCCC2)cc1`, with inactive: 93%; and `Oc1c(C(c2ccccc2F)N2CCN(Cc3ccccc3)CC2)sc2nc(-c3ccco3)nn12` (stereo not given), with inactive: 89%.
In the case of `Cc1c(C(=O)N2CCC(c3nc4ccccc4s3)CC2)oc2ccc(Cl)cc12` it was inactive: 72%; in that of `CCOC(=O)c1c(C)c(-c2ccccc2)n(CC(=O)Nc2cc(C)ccc2OC)c1C`, inactive: 66%.
